The values below come from PubChem BioAssay AID485344 (National Center for Advancing Translational Sciences (NCATS), 2010).

Structures are written as SMILES. Hit rate of the full screen: of about 340,000 compounds, about 6,900 (2%) were called active. No stated cut-off is given here; in the data, active means inhibition above about 30%; inactive means below that, where a call was filed. Only a part is listed here, and it is no random draw. The source gives no active or inactive call for entries shown without one.

In the assay the target is D(2) dopamine receptor (Homo sapiens) (UniProt P14416). The experiment in a line: HTS Assay for Allosteric Antagonists of the Human D2 Dopamine Receptor: Primary Screen for Antagonists. Further: 0% is about no effect. Conditions: HEK293 TREx D2 cells, calcium flux, dopamine EC80; at 10 µM; stronger effect = higher value. In a few lines: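 Calcium flux kinetic readout in an inducible HEK293 TREx D2 line plated overnight at 30 C. After 180 s compound exposure, an EC80 dopamine challenge follows with another 180 s kinetic read to detect antagonism.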
Chain of UniProt P14416 (P14416 whole entry, looked up): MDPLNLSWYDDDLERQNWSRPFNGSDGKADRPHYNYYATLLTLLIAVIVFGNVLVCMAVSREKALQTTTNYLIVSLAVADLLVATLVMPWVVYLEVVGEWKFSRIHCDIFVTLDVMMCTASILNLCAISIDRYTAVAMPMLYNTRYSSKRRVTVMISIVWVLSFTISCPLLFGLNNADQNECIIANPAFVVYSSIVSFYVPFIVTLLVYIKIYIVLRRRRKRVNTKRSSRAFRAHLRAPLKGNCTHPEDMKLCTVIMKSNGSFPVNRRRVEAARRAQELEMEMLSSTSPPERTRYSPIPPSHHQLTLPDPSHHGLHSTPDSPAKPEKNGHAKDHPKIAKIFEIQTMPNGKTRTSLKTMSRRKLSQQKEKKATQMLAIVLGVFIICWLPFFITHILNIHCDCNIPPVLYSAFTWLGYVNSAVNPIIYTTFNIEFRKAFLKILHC
On to `Cn1c(=O)c(=O)n(C)c2cc(S(=O)(=O)Nc3ccc(Cl)c(C(F)(F)F)c3)ccc21`, for which the inhibition (commonly the change of the read-out against control, counted positive when it falls) is -16.7%.
Consider `Cc1ccc(C2c3[nH]c4ccccc4c3CCN2C(=O)CCc2ccccc2)cc1` (stereo not given), for which the inhibition came out at 1.81%.
On to `O=c1c2nnn(-c3cccc(F)c3)c2ncn1Cc1ccccn1`, for which the inhibition is active: 33.9%.
The figure for `O=C(COc1ccccc1)Nc1nnc(SCc2cc(=O)c3ccccc3[nH]2)s1` is -10.4%; for `Clc1ccc(-c2noc(-c3cccnc3N3CCN(c4ccccc4)CC3)n2)cc1` it is -5.22%.
For `COC(=O)c1ccc(NC(=O)CC2C(=O)N(c3ccc(C)cc3)C(=O)N2Cc2ccc(OC)cc2)cc1` (stereo not given) the value was 1.95%; for `CCOc1ccc(NC(=O)Cn2cc(C(=O)c3ccccc3)c(=O)c3cc4c(cc32)OCCO4)cc1`, -14.5%.
For `CCc1ccccc1Nc1cc(C(=O)NCCCN(C)C2CCCCC2)c2ccccc2n1` the value was -20.4%.
Regarding `Cc1ccc(C)c(N2CCN(C(=O)c3nn(C)c4c3CS(=O)(=O)c3ccccc3-4)CC2)c1`, the inhibition was 22.3%.
For `COc1ccccc1/C=C/C(=O)NCCC1=CCCCC1` the value was active: 35.4%; for `Cc1cnc2c(c1SCC(=O)NCc1ccccc1Cl)c(=O)n(C)c(=O)n2C`, -26.2%; for `Cc1ccc(NC(=O)c2ccc3c(c2)OCCO3)cc1S(=O)(=O)Nc1cccc(Cl)c1`, active: 31.3%.
For `CC(C)(Oc1ccc(Cl)cc1)C(=O)Nc1nnc2n1CCS2` the value was 14.7%; for `CCCCNC(=O)CC1N=C2c3ccccc3N=C(SCC(=O)NCc3ccccc3Cl)N2C1=O` (stereo not given), -4.06%; for `Cc1ccc(NC(=O)CCC(=O)N2CCSc3ccccc32)cc1`, 16.3%.
For `COc1cccc(C(=O)Nc2cccc(OCc3cc(=O)n4cccc(C)c4n3)c2)c1` the value was -3.01%; for `COC(=O)c1cccc(CN2C(=O)SC(Nc3ccc(Cl)cc3)C2=O)c1` (stereo not given), 8.08%; for `CCOC(=O)c1noc2ncnc(Nc3cccc(C(F)(F)F)c3)c12`, 11.1%.
Consider `COc1ccc(Nc2c3c(nc4nncn24)CCC3)cc1Cl`, for which the inhibition stood at 8.5%.
As for `O=C(Nc1ccccc1C(F)(F)F)N1CCC2(CC1)Oc1ccccc1C(=O)N2Cc1ccccc1F`, the inhibition is -3.87%.
For `CC(=O)Nc1ccc(NC(=O)CCc2c(C)nc3c(c(C)nn3-c3ccccc3)c2C)cc1` the value was 1.03%; for `CCCc1cc(=O)[nH]c(Nc2ccc(C)c(O)c2)n1`, -7.02%; for `CCOC(=O)c1c(C)oc2nc(C)nc(NCc3ccc(OC)cc3)c12`, -13%.
As to `COCCNC(=O)c1ccc2c(c1)N(Cc1c(F)cccc1Cl)C(=O)c1ccccc1S2`, the inhibition is -1.84%.
The figure for `O=c1c2ccccc2nc(N2CCN(c3cccc(Cl)c3)CC2)n1-c1ccccc1` is 0.409%.
For `CCN(CC)CCCNC(=O)c1nn(-c2ccc(OC)cc2)c(=O)c2c1c1ccccc1n2C` the value was -7.76%; for `CCC(C(=O)N1CCN(c2ccc(OC)cc2)CC1)n1nc(C)n2c(cc3occc32)c1=O` (stereo not given), 3.89%.
`Nc1ccc(S(=O)(=O)NC2(C(F)(F)F)NC(=O)N(c3cccc(Cl)c3)C2=O)cc1` (stereo not given): the inhibition is -16%.
As to `Cc1c(Cl)cccc1NC(=O)Cn1cnc(S(=O)(=O)N2CCCC2)c1`, the inhibition was -25.2%.
For `COc1ccc(NC(=O)CC2C(=O)N(c3ccc(C)cc3)C(=O)N2Cc2ccc(C)cc2)cc1` (stereo not given) the value was -4.07%; for `COc1cccc2[nH]c(C(=O)NCc3ccccc3)cc12`, active: 41.7%.
For `Cc1nnc(NCc2ccc(F)cc2)c2c1nnn2Cc1ccccc1Cl` the value was -0.991%; for `CCOc1ccc(NC(=O)CCn2nc(C)c(S(=O)(=O)N3CCCCC3)c2C)cc1`, 3.43%; for `COc1ccccc1CNCC(=O)Nc1cc(S(=O)(=O)N2CCCCCC2)ccc1Cl`, active: 85.5%.
For `CC(Oc1ccc2ccc(=O)oc2c1)C(=O)NC(Cc1c[nH]c2ccc(O)cc12)C(=O)O` (stereo not given) the value was active: 43.8%; for `COc1ccccc1N1CCN(S(=O)(=O)c2c(C)sc3ncn(CC(=O)NCCN(C)C)c(=O)c23)CC1`, 9.31%; for `COc1ccc(OC)c(NC(=O)CSC2=Nc3ccccc3C3=NC(CCC(=O)NCCc4ccccc4)C(=O)N23)c1` (stereo not given), -22.3%.
On to `CCc1ccc(N2C(=O)N(CC(=O)C(C)(C)C)c3ccccc3S2(=O)=O)cc1`, for which the inhibition amounted to 6.53%.
For `Cc1ccc(-c2nnc(Nc3cccc(Br)c3)c3ccccc23)cc1S(=O)(=O)NCC1CCCO1` (stereo not given) the value was -9.72%; for `Cc1ccc(NC(=O)CCCn2nc(C)c3sc4ccccc4c3c2=O)c(Cl)c1`, -1.67%; for `CCC(C(=O)Nc1cccc(C#N)c1)n1nc(-c2ccccc2)ccc1=O` (stereo not given), -1.14%.
The figure for `COC(=O)c1ccc(/C=C/c2c(-c3ccc(OC)cc3)oc3ccccc23)cc1` is active: 47%.
The figure for `O=C(c1ccc2c(c1)N(Cc1ccc(Cl)cc1)C(=O)c1ccccc1S2(=O)=O)N1CCc2ccccc21` is 10.3%; for `O=C(NCc1ccc(F)cc1)C(=O)NCC(c1ccco1)S(=O)(=O)c1cccs1` (stereo not given) it is -9.16%; for `CCN(CC(=O)Nc1cc(Cl)ccc1C)C(=O)CCOc1ccccc1C` it is active: 31.2%.
For `CCOc1ccc(C2C(=O)N(C3CCCCCC3)CC(=O)N2CCc2ccc(Cl)cc2)cc1OC` (stereo not given), the inhibition came out at 10%.
For `O=C(Cn1ccc2cc(S(=O)(=O)N3CCCC3)ccc21)NCc1ccccc1Cl` the value was 8.02%.
For `CCN1c2ccccc2-c2nc(SCC(=O)Nc3cc(F)ccc3F)ncc2S1(=O)=O` the value was -6.3%; for `O=C(NC1CCCC1)c1cc(-c2ccccc2O)on1`, active: 47.5%; for `CCOc1ccc(NC(=O)CCNS(=O)(=O)c2cccc3nsnc23)cc1`, -3.06%.
The figure for `CCc1c(C(C)S(=O)(=O)c2ccccc2)[nH]c(=O)n1CC` (stereo not given) is active: 34.6%; for `CCc1cccc(C)c1NC(=O)C(CC)Sc1nncn2c1cc1occc12` (stereo not given) it is 7.29%.
For the molecule `CCS(=O)(=O)N1CCc2cc(C(=O)Nc3cc(OC)c(Cl)cc3OC)ccc21`, the inhibition was determined as 17.8%.
Regarding `COc1ccc(NC(=O)c2oc3ccccc3c2NC(=O)COc2ccc(F)cc2)c(OC)c1`, the inhibition worked out at 11.3%.
With `Cc1ccc(NC(=O)Cn2cc(C(=O)C3CCCCC3)c3ccccc32)c(C)c1`, the inhibition is 6.51%.
On to `Cc1cccc(C(=O)Nc2nnc(S(=O)(=O)N3CCCc4ccccc43)s2)c1`, for which the inhibition is -19.6%.
The figure for `CCOC(=O)c1c(C)n(-c2ccccc2)c2ccc(OC(=O)c3cc(OC)cc(OC)c3)cc12` is 0.427%; for `CCc1ccc(NC(=O)c2cc(C)nn2-c2ccccc2)cc1` it is -14%; for `CCOC(=O)c1c(C)[nH]c(C)c1S(=O)(=O)NCC1CCN(Cc2ccccc2OC)CC1` it is active: 32.9%.
The figure for `CCOC(=O)c1c(NC(=O)c2cc3ccccc3c(=O)o2)sc2c1CCC(C(C)(C)C)C2` (stereo not given) is -9.4%.
